# In article PMC4336329 (PLoS ONE, 2015):
# Out of some 310,000 compounds screened, about 14,000 (4.5%) showed an effect of 50% or more. The effect is printed as a negative number. The list shows a part of the results.
# Biological target: human ether-à-go-go-related gene (hERG) potassium channel (human, UniProt Q12809)
# Assay: primary screen, population patch clamp on CHO cells stably expressing hERG
# 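Note: peak tail current of the secondary pulse compared with the same well before compound.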
# Sequence of human ether-à-go-go-related gene (hERG) potassium channel (Q12809 whole entry, looked up): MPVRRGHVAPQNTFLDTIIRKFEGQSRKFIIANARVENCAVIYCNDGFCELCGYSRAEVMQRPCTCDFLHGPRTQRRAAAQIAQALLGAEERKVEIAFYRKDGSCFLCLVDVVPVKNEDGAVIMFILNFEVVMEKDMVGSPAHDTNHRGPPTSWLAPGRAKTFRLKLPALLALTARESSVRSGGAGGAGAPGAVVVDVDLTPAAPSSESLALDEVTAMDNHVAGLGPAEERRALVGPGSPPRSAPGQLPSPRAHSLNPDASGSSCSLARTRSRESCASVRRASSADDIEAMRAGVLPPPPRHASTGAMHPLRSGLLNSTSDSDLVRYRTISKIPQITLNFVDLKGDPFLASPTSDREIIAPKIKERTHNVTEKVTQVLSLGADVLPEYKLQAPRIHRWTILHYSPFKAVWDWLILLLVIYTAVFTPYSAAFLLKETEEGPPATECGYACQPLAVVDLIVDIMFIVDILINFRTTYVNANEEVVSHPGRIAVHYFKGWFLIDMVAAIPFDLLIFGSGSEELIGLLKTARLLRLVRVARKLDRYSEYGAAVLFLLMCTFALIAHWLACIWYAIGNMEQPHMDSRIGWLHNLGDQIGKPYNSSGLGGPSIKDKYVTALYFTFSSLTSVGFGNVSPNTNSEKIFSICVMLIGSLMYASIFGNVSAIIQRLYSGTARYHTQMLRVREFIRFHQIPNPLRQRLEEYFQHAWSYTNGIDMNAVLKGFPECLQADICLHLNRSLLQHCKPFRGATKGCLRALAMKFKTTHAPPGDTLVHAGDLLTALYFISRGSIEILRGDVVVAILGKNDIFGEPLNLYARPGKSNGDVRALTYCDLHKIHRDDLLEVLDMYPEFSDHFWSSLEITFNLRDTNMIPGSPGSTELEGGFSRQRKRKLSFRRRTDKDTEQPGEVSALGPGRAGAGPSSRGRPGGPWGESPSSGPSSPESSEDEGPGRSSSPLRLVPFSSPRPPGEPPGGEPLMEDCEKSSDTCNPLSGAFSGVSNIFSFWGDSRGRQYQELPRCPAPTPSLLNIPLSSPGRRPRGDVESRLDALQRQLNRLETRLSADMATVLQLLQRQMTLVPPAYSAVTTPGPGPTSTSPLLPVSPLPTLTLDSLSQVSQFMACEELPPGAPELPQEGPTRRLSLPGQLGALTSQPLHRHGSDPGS
row,Structure (SMILES),"hERG current change (%, negative = inhibition) at 10uM [%]"
1,C/C=C/c1ccc(OCC(O)CNCCc2ccc(OC)cc2)c(OC)c1.O=C(O)C(=O)O (centres unmarked),-73.4
2,COC(=O)c1ccccc1Oc1ccc(NC(=O)CCCl)cc1,-0.142
3,COc1ccc(NC(=O)CN2C(=O)NC3(CC(C)CC(C)(C)C3)C2=O)cc1S(=O)(=O)N1CCCCC1 (centres unmarked),-35.3
4,C=CCn1c(SCC)nc(O)cc1=O,-10.4
5,O=C(COC(=O)c1cc([N+](=O)[O-])ccc1N1CCOCC1)c1ccc(Br)cc1,-44.6
6,O=c1c2ccccc2nc2n1C1(CCCCC1)Cc1ccccc1-2,-6.27
7,COc1ccc(C(=O)OCC(=O)NC(C)CCc2ccccc2)cc1OC (centres unmarked),0.524
8,OC(c1ccc(OCc2ccccc2)cc1)c1nnc(-c2ccccc2)o1 (centres unmarked),-11.6
9,CCCC(=O)Nc1cccc(NC(=O)c2ccc(C)c([N+](=O)[O-])c2)c1,-3.03
10,COc1ccc(CN=C(N)N=C(N)N)cc1Cl.Cl,3.84
11,CNC(=O)OCCc1n(C)cc[n+]1C.[I-],13.9
12,COc1ccc(N(CC(=O)Nc2ccc(F)cc2F)S(=O)(=O)c2c(C)nn(C)c2C)cc1,-12.4
13,CC1CCCC(C)N1C(=O)Cn1cc(C#N)c2ccccc21 (centres unmarked),9.8
14,COc1ccc(CNC(=O)CNC(c2ccccc2)c2ccccc2)cc1OC,-34.4
15,COc1ccc(NC(=O)CSc2nnc(C3CCCCC3)o2)c(OC)c1,-8.97
16,CCOC(=O)N1CCN(c2c(N3CCC(N4CCCCC4)CC3)c(=O)c2=O)CC1,14.7
17,CCOC(=O)C1=C(C)N=c2sc(=C(C)C)c(=O)n2C1c1ccc(N(C)C)cc1 (centres unmarked),-7.45
18,COc1cccc(CNC(=O)Cc2csc(Nc3nc(=S)[nH]c4ccccc34)n2)c1,13.5
19,Cc1ccc(OCCC(=O)OCC(=O)NNC(=O)c2ccccc2)cc1,17.8

row,Structure (SMILES),"hERG current change (%, negative = inhibition) at 10uM [%]"
1,O=C(C1CCN(S(=O)(=O)c2cc(Cl)ccc2Cl)CC1)N1CCCC1,-0.339
2,Cc1nc(Nc2c(Cl)cccc2Cl)sc1C(=O)Nc1ccccc1,-20
3,COc1ccccc1NC(=S)NCc1ccccc1Cl,-1.31
4,C=CCn1c(O)c(C(C)=Nc2cc(OC)ccc2OC)c(=O)[nH]c1=O,-0.337
5,O=c1c(-c2cccc3ccccc23)[n+]([O-])c2ccccc2n1O,8.85
6,CC(C)OP(=O)(OC(C)C)C1(NS(=O)(=O)c2ccc(Cl)cc2)C=C(Cl)C(=O)C(Cl)=C1,-18.7
7,COc1ccc(C(=O)Nc2cnc3sc(C)nn3c2=O)cc1,-2.59
8,CSc1ccccc1OCc1cc(C(=O)NCC(C)(C)N2CCOCC2)no1,-93
9,O=C(CCN1C(=O)c2ccccc2S1(=O)=O)NCc1ccccc1,-0.597
10,O=C(NCCn1cccn1)C1CCC(=O)N(CCc2ccccc2)C1 (centres unmarked),9.33
11,O=C(NCc1ccc2c(c1)OCO2)c1cc2ncc(Br)cn2n1,-8.1
12,CC(Nc1cc(N2CCOCC2)ccc1[N+](=O)[O-])c1ccccc1 (centres unmarked),-2.04
13,COc1ccccc1CNC(=O)CNC(=O)Cn1cnc2ccccc2c1=O,3.18
14,CNC(=S)NNC(=O)c1c(C)nc2cc(C)ccn12,7.15
15,CN(CC(=O)NCCN1CCN(c2ccccc2)CC1)S(=O)(=O)c1ccc2c(c1)CCC(=O)N2,-9.99
16,C/C=C/C=C\C(=O)Nc1cccc(C2=NOC3(C2)C[C@@H](C(N)=O)N(C(=O)/C(C)=C/C)C3)c1 (some centres unmarked),7.54
17,Cc1ccc(C)c(NC(=O)c2ccc(S(=O)(=O)N(C)CC3CCCO3)cc2)c1 (centres unmarked),-19.3
18,CCCCc1ccc(NC(=S)NCCCN2CCOCC2)cc1,-9.83
19,O=C(NNC(=O)c1cccs1)c1csc(N2CCOCC2)n1,16.2

row,Structure (SMILES),"hERG current change (%, negative = inhibition) at 10uM [%]"
1,CC(=O)c1c(O)n(C)c(=S)n(-c2ccccc2)c1=O,17.2
2,Cc1cc(C)c(NC(=S)N2CCN(c3ccc([N+](=O)[O-])cn3)CC2)cc1C,11.8
3,CCOC(=O)c1ccc(N2C(=O)CC(NC3CCN(C(=O)c4ccc(F)cc4)CC3)C2=O)cc1 (centres unmarked),-12.6
4,Cc1[nH]c2ccc(-c3nnc(SCC(=O)c4ccc(F)cc4)o3)cc2c1C,28
5,CCCN1CCN(CC(=O)Nc2cc(OCC)ccc2OCC)CC1.Cl,-57.6
6,CN(C)c1nc(C#N)nc(N2CCOCC2)n1,-32.3
7,CCn1c(CNC(=O)Cc2ccc(OC)cc2)nnc1SCC(=O)Nc1ccc(C(=O)O)cc1,17
8,Cn1ccnc1SCC(=O)c1ccc(C#N)cc1,-10.5
9,CC(C)NS(=O)(=O)c1ccc(NC(=O)C2CCCCC2)cc1,2.54
10,Cc1ccc(-c2noc(CCC(=O)N3CCCc4ccccc43)n2)cc1,-20.6
11,O=C(Nc1ncn[nH]1)c1ccccc1Br,-3.32
12,CC(c1ccccc1)n1c(-c2ccncc2)n[nH]c1=S (centres unmarked),13.3
13,Cc1cc(C)n2nc(C(=O)OCC(=O)N(CCC#N)c3ccc(F)cc3)nc2n1,22.4
14,Cn1c(SCC(=O)c2ccccc2)nnc1C1COc2ccccc2O1 (centres unmarked),-11.9
15,Cc1cccc(N(C(=O)CCC(=O)Nc2nccs2)C(C(=O)NC(C)(C)C)c2ccc(O)cc2)c1 (centres unmarked),10.3
16,O=C(CCCc1c[nH]c2ccccc12)NCc1ccccc1C(F)(F)F,13.1
17,NC(=O)C1CCN(C(=O)c2ccc(NS(=O)(=O)c3ccc(F)c(F)c3)cc2)CC1,-3.95
18,Cc1ccccc1CCNC(=O)CCn1nc(C)c2c(C)n(-c3ccccc3)nc2c1=O,-13.5
